From the supplement of paper PMC4967469
The IC50 comes from the fitted curve, where viability falls to half of the control; a limit (>, <) means that the fit lies beyond the doses tested. The AUC spans the tested range (256-fold, ending at the top dose) of the same fit; values near 1 show little effect. For part of these data: An inferred top dose is not printed in the source and was worked back from the curve model. For part of these data: An entry number marks a drug with two screens in the source, which often give different values.

How the values were obtained:
Experiment in all cases: Viability of human cancer cell lines after 72 h of drug (GDSC screen)
AMG-706 = compound: CC1(C)CNc2cc(NC(=O)c3cccnc3NCc3ccncc3)ccc21 [AMG-706]; conditions: top dose 2 µM; top dose inferred
Experimental: (§1)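 Human cancer cell lines in 384-well plates, medium with 10% serum, drug for 72 h over a 256-fold dose range (nine 2-fold or five 4-fold steps up to the top dose). Adherent lines were fixed and stained with the nucleic acid dye Syto60, suspension lines read with resazurin; signal relative to control wells, capped at 0 and 100%. One two-parameter sigmoid per drug and line, fitted in a mixed model over all curves with the slope shared within a line.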

JNK Inhibitor VIII = compound: CCOc1nc(NC(=O)Cc2cc(OC)ccc2OC)cc(N)c1C#N [JNK Inhibitor VIII]; conditions: top dose 10 µM; top dose inferred
Experimental: as §1

OSI-906 = compound: C[C@]1(O)C[C@@H](c2nc(-c3ccc4ccc(-c5ccccc5)nc4c3)c3c(N)nccn32)C1 [OSI-906]; conditions: top dose 2.56 µM; top dose inferred
Experimental: as §1

FTI-277 = compound: COC(=O)[C@H](CCSC)NC(=O)c1ccc(NC[C@@H](N)CS)cc1-c1ccccc1 [FTI-277]; conditions: top dose 1.024 µM; top dose inferred
Experimental: as §1

NSC-207895 = compound: CN1CCN(c2ccc([N+](=O)[O-])c3no[n+]([O-])c23)CC1 [NSC-207895]; conditions: top dose 20 µM; top dose inferred
Experimental: as §1

JQ1 = compound: Cc1sc2c(c1C)C(c1ccc(Cl)cc1)=N[C@@H](CC(=O)OC(C)(C)C)c1nnc(C)n1-2 [JQ1]
Experimental: as §1

SB-715992 = compound: Cc1ccc(C(=O)N(CCCN)[C@@H](c2nc3cc(Cl)ccc3c(=O)n2Cc2ccccc2)C(C)C)cc1 [SB-715992]; conditions: top dose 0.128 µM; top dose inferred
Experimental: as §1

JNJ-26854165 = compound: c1ccc2c(CCNc3ccc(Nc4ccncc4)cc3)c[nH]c2c1 [JNJ-26854165]; conditions: top dose 10 µM
Experimental: as §1

YM155 = compound: COCC[n+]1c2c(n(Cc3cnccn3)c1C)C(=O)c1ccccc1C2=O [YM155]; conditions: top dose 5.12 µM
Experimental: as §1

Belinostat = compound: O=C(/C=C/c1cccc(S(=O)(=O)Nc2ccccc2)c1)NO [Belinostat]; conditions: top dose 20 µM; top dose inferred
Experimental: as §1

[1] = top dose 1 µM, screen: GDSC drug entry 1218, top dose inferred
[2] = top dose 2.56 µM, screen: GDSC drug entry 163

Cell Line | AUC (AMG-706) | IC50 (AMG-706) [nM] | AUC (JNK Inhibitor VIII) | IC50 (JNK Inhibitor VIII) [nM] | AUC (OSI-906) | IC50 (OSI-906) [nM] | AUC (FTI-277) | IC50 (FTI-277) [nM] | AUC (NSC-207895) | IC50 (NSC-207895) [nM] | AUC (JQ1; [1]) | IC50 (JQ1; [1]) [nM] | AUC (JQ1; [2]) | IC50 (JQ1; [2]) [nM] | AUC (SB-715992) | IC50 (SB-715992) [nM] | AUC (JNJ-26854165) | IC50 (JNJ-26854165) [nM] | AUC (YM155) | IC50 (YM155) [nM] | AUC (Belinostat) | IC50 (Belinostat) [nM]
RERF-LC-KJ (lung adenocarcinoma, adherent) | 0.973 | > 2000 | 0.984 | > 10000 | 0.807 | 1360 | 0.982 | > 1020 | 0.982 | > 20000 | 0.986 | > 1000 | 0.911 | > 2560 | 0.851 | 103 | 0.957 | > 10000 | 0.188 | 35.9 | 0.819 | 11800
RVH-421 (melanoma, adherent) | 0.977 | > 2000 | 0.98 | > 10000 | 0.957 | > 2560 | 0.965 | > 1020 | 0.954 | > 20000 | 0.963 | > 1000 | 0.743 | 1050 | 0.917 | > 128 | 0.851 | > 10000 | 0.551 | 463 | 0.682 | 4900
SBC-3 (small cell lung carcinoma, adherent) | 0.986 | > 2000 | 0.989 | > 10000 | 0.845 | 1600 | 0.969 | > 1020 | 0.771 | 6970 | 0.988 | > 1000 | 0.469 | 133 | 0.669 | 22.5 | 0.902 | > 10000 | 0.021 | < 20 | 0.163 | 134
SISO (cervix, adherent) | 0.957 | > 2000 | 0.982 | > 10000 | 0.774 | 966 | 0.978 | > 1020 | 0.844 | 13400 | 0.838 | 637 | 0.609 | 314 | 0.769 | 46.4 | 0.912 | > 10000 | 0.024 | < 20 | 0.568 | 1910
SK-CO-1 (large intestine, adherent) | 0.977 | > 2000 | 0.989 | > 10000 | 0.881 | 2410 | 0.955 | > 1020 | 0.958 | > 20000 | 0.986 | > 1000 | 0.966 | > 2560 | 0.972 | > 128 | 0.968 | > 10000 | 0.072 | < 20 | 0.479 | 1100
SK-LU-1 (lung adenocarcinoma, adherent) | 0.917 | > 2000 | 0.891 | > 10000 | 0.79 | 1490 | 0.939 | > 1020 | 0.967 | > 20000 | 0.978 | > 1000 | 0.741 | 966 | 0.94 | > 128 | 0.925 | > 10000 | 0.077 | < 20 | 0.588 | 2330
SK-MES-1 (lung squamous cell carcinoma, adherent) | 0.982 | > 2000 | 0.972 | > 10000 | 0.954 | > 2560 | 0.933 | > 1020 | 0.971 | > 20000 | 0.974 | > 1000 | 0.595 | 299 | 0.816 | 79 | 0.868 | > 10000 | 0.054 | < 20 | 0.378 | 559
SU-DHL-5 (B-cell lymphoma, suspension) | 0.994 | > 2000 | 0.994 | > 10000 | 0.991 | > 2560 | 0.994 | > 1020 | 0.385 | 655 | 0.799 | 350 | 0.614 | 303 | 0.537 | 9.83 | 0.834 | 4380 | 0.01 | < 20 | 0.033 | < 78.1
SW900 (lung squamous cell carcinoma, adherent) | 0.969 | > 2000 | 0.969 | > 10000 | 0.842 | 2230 | 0.981 | > 1020 | 0.982 | > 20000 | 0.98 | > 1000 | 0.947 | > 2560 | 0.928 | > 128 | 0.683 | 2220 | 0.041 | < 20 | 0.535 | 1590
SW1573 (lung adenocarcinoma, adherent) | 0.978 | > 2000 | 0.965 | > 10000 | 0.918 | > 2560 | 0.978 | > 1020 | 0.98 | > 20000 | 0.978 | > 1000 | 0.883 | > 2560 | 0.969 | > 128 | 0.853 | > 10000 | 0.187 | 25.3 | 0.635 | 3370
TCCSUP (bladder, adherent) | 0.965 | > 2000 | 0.984 | > 10000 | 0.888 | > 2560 | 0.875 | > 1020 | 0.891 | > 20000 | 0.978 | > 1000 | 0.571 | 257 | 0.984 | > 128 | 0.805 | 5940 | 0.048 | < 20 | 0.499 | 1240
VM-CUB-1 (bladder, adherent) | 0.938 | > 2000 | 0.942 | > 10000 | 0.971 | > 2560 | 0.944 | > 1020 | 0.873 | 18200 | 0.981 | > 1000 | 0.758 | 857 | 0.987 | > 128 | 0.933 | > 10000 | 0.028 | < 20 | 0.519 | 1400
